Reference: ChEMBL document CHEMBL4888484, “Replenishing the malaria drug discovery pipeline: Screening and hit evaluation of the MMV Hit Generation Library 1 (HGL1) against asexual blood stage Plasmodium falciparum ,using a nano luciferase reporter read-out” (2022)
The whole screen tested about 150,000 compounds, of which about 540 (0.36%) showed an effect of 50% or more. The list shows a part of the results.

test system: Plasmodium falciparum; test: Primary screen in NF54 nanoGlo assay, in single point, at 2uM, 72h; a lower Z score goes with more inhibition; type: functional, Erythrocyte; conditions: timepoint 72 hour

| SMILES | % Inhibition [%] | Z score |
| --- | --- | --- |
| COc1ccc(C(NC(=O)CC[C@@H]2NC(=O)N(c3ccccc3)C2=O)C(C)C)cc1OC (stereo partly specified) | -10 | 1.25 |
| CC(C)C[C@H](NC(=O)N1CCOCC1)c1cccnc1 | 2 | -0.37 |
| Cc1nccn1[C@@H](C)CC(=O)N1CC(n2cccn2)C1 | -2 | 0.31 |
| Cc1noc([C@@H]2CC3(CCN(C(=O)CC(C)C)CC3)CN2C)n1 | -8 | 1.01 |
| CCCN1CCC[C@H](NC(=O)c2cn(CCc3ccccc3)cc(C(=O)O)c2=O)C1 | 0 | -0.06 |
| O=C(c1cccc[n+]1[O-])N(Cc1cccc2ccccc12)C1CCCC1 | 11 | -1.69 |
| Fc1cccc2c(N3CCC[C@H](N4CCOCC4)CC3)ncnc12 | -17 | 2.47 |
| CCn1cc(S(=O)(=O)N2C[C@@H]3[C@H]4CC[C@H](CC4)[C@@H]3C2)cn1 | 2 | -0.33 |
| CC1CCN(C(=O)Cn2cccc(S(=O)(=O)N3CCC(C)CC3)c2=O)CC1 | -1 | 0.25 |
| O=C(CC1CCCC1)Nc1ccncc1 | -5 | 0.54 |
| COC(=O)N1CCN(C[C@@H]2CCC[C@@H]2NC(=O)OC(C)(C)C)CC1 | 9 | -1.08 |
| C[C@@]1(C(=O)NC2CCCCCCC2)Cn2c(ccc2-c2ccccc2)C(=O)N1Cc1ccco1 | 7 | -0.83 |
| Cc1cc(C)nc(Oc2cccc(NC(=O)c3cc(Cl)ccc3Cl)c2)n1 | 4 | -0.53 |
| Cc1occc1C(=O)N1CCCCCCC1 | -14 | 1.86 |
| CN(C)C(=O)CN(C)C(=O)C1CCCCC1 | -4 | 0.45 |
| O=C(CCC(=O)c1ccc2c(c1)OCCCO2)Nc1cccc(S(=O)(=O)N2CCOCC2)c1 | -2 | 0.43 |
| Cc1cccn2c(CC(=O)N3CC[C@H](Cc4ccc(CO)cc4)C3)cnc12 | -6 | 0.96 |
| Cc1cc(NC(=O)CCN2CCC[C@H]2c2nc3ccccc3s2)no1 | -21 | 2.11 |
| Cc1ccc2nc(C3CC3)cc(C(=O)N3CC[C@@H](N)C3)c2c1 | 0 | -0.05 |
| CCCn1nnnc1CN[C@H](c1ccccc1)C1CCC1 | -13 | 1.51 |
| CC(C)CN(CC(F)(F)F)C(=O)COc1ccc(CC(N)=O)cc1 | -2 | 0.29 |

| SMILES | % Inhibition [%] | Z score |
| --- | --- | --- |
| CCCn1c(-c2cccc(C(=O)NCc3ccc(Br)cc3)c2)nc2cccnc21 | -1 | 0.12 |
| COC(=O)Nc1ccc(C(=O)NC[C@H](C)N2CCc3ccccc32)cc1 | -13 | 2.36 |
| CC1CCN(Cc2ccccc2CNC(=O)OCC(F)(F)F)CC1 | -3 | 0.34 |
| CN1C(=O)CN(C(=O)[C@H]2CCOC2)c2ccccc21 | 7 | -0.81 |
| Cc1c(C#N)c(NC(=O)CN2CCc3sccc3C2C)n(CC2CCCO2)c1C (stereo unspecified) | -37 | 4.29 |
| O=C(CN1C(=O)CNC1=O)Nc1ccc(-c2cc3ccccc3o2)cc1 | 20 | -2.38 |
| Cc1cnc(C(=O)N2CCCC[C@H]2C2(CN)CCC2)cc1C | -5 | 0.85 |
| CCC1=NO[C@H](C(=O)N2CCC3(CC2)CC(=O)N(Cc2ccccc2)C3)C1 | -8 | 1.6 |
| Cc1noc2ncnc(NC[C@@H](CO)Cc3ccc(F)c(F)c3)c12 | -16 | 1.4 |
| CC(C(C)S(C)(=O)=O)N(C)C(=O)Cn1ncc2cccnc21 (stereo unspecified) | -15 | 1.77 |
| O=C(Nc1nc(-c2ccccc2)cc(-c2ccc(Cl)cc2)n1)c1ccc(F)cc1 | -14 | 2.55 |
| COC(=O)NCc1cccc(Br)c1 | -7 | 1.06 |
| COC(=O)N1CCc2ccc(F)cc2[C@@H]1C(=O)Nc1nc2c(s1)CCCC2 | 0 | 0 |
| O=C(c1[nH]c2ccc(F)cc2c1Cl)N1CCC(c2nc3ccccc3o2)CC1 | 23 | -2.97 |
| Cc1nc(C)c(C(=O)Nc2ccc3c(c2)CCC(=O)N3)o1 | 5 | -0.63 |
| O=C(O)[C@H]1CCCN1c1nccc(OCc2ccccc2)n1 | -6 | 0.71 |
| CCc1nc(CN2C(=O)COc3cc(S(=O)(=O)N4CCCCCC4)c(Cl)cc32)no1 | 0 | -0.05 |
| O=C(N[C@H]1CCCc2ccccc21)c1cc(N2CCOCC2)ncn1 | 6 | -1.06 |
| Cc1nn(-c2cccc(F)c2)c(N2CCN(C(C)C)CC2)c1CN(C(=O)c1ccc(F)cc1)C(C)C | 9 | -1.18 |
| Cc1cc(C)cc(OS(=O)(=O)CCCN2CCN(C)CC2)c1 | -1 | 0.21 |
| C=CCOc1cccc2c1cc(C(=O)Nc1ccc(C)cc1)n2CC | -4 | 0.41 |

| SMILES | % Inhibition [%] | Z score |
| --- | --- | --- |
| CC1(C)N=C(N)N=C(Nc2ccccc2Cl)N1 | -18 | 2.8 |
| Cc1ccc2c(c1)[C@@H](C)CC1(CCCCC1)N2 | -4 | 0.48 |
| C[C@@H](C(=O)O)N(Cc1ccccc1)C(=O)c1cc(C2CC2)n(C)n1 | -12 | 2.25 |
| Nc1cccc(C(=O)NCCc2noc(C(F)(F)F)n2)n1 | -8 | 1.33 |
| CCN(CC)C(=O)N1CC[C@@H](c2nc(C)no2)N(C(=O)C2CCCC2)CC1 | 4 | -0.88 |
| COc1ccccc1C1CC1C(=O)C(C#N)c1nc2ccccc2s1 (stereo unspecified) | -3 | 0.34 |
| O=C1NCC2(CCN(C(=O)NCc3cc(-c4ccccc4F)no3)CC2)O1 | 4 | -0.61 |
| O=C(NC1CCCC1)c1cc(S(=O)(=O)N2CCCCCC2)ccc1Cl | -4 | 0.57 |
| Cc1cc(NC(=O)NCCc2cn[nH]c2)cs1 | 2 | -0.32 |
| Cc1noc(CO[C@H]2CCCN(S(=O)(=O)c3cccs3)C2)n1 | -15 | 1.92 |
| CN1CCN(S(=O)(=O)CC2(C)CCC2)CC1=O | -11 | 2.16 |
| COCCN1CCN2C(=O)[C@H](Cc3ccccc3)N(Cc3cccc(OC)n3)C[C@H]2C1=O | -10 | 0.9 |
| COc1ccc(C(=O)N2CCC[C@@H]2CC(=O)c2cnn(C)c2)cc1OC(F)F | -10 | 1.59 |
| CCc1cc2n(Cc3ccc(C(=O)O)cc3)c3ccccc3[n+]2nc1CC | -27 | 3.15 |
| CCc1ccc2nc(C)cc(C(=O)N3CCC[C@H](c4nccn4CC)C3)c2c1 | -18 | 1.69 |
| CN(CC(F)(F)F)C(=O)Nc1cccc(F)c1 | -10 | 1.3 |
| COc1ccc(C2(CN3C(=O)N[C@@H](CCC(=O)NC4CCCCCCC4)C3=O)CCOCC2)cc1 | -19 | 1.99 |
| CS(=O)(=O)N1CC(CS(=O)(=O)N2CC(c3ccccc3)C2)C1 | -5 | 0.7 |
| CCOC(=O)c1nc2ccccc2nc1N1CCCN(S(=O)(=O)c2ccccc2C#N)CC1 | -8 | 0.94 |
| C[C@H](C#N)CNc1ncc(Br)cn1 | 35 | -1.16 |
| CCCn1ncnc1[C@H](C)NC(=O)Nc1cc(NC(=O)COC)ccc1C | -8 | 0.83 |

| SMILES | % Inhibition [%] | Z score |
| --- | --- | --- |
| CO[C@H]1CCOC2(CCN(C(=O)c3ccccc3F)CC2)C1 | 35 | -0.83 |
| COCC1(C(=O)NCCn2ccnc2)CCC1 | -8 | 1.26 |
| Cc1cc(C)cc(-n2ncc3c(N4C[C@@H]5CC[C@H](O)[C@@H]5C4)ncnc32)c1 | -7 | 1.11 |
| CC[C@H](C)NC(=O)N1CCC(n2cc(Cn3c(C)nc4ccccc43)nn2)CC1 | -15 | 2.07 |
| CCN1CCN(C(=O)c2cc(S(=O)(=O)N3CCCCCC3)ccc2Cl)CC1 | -8 | 1.11 |
| O=C(Nc1ccc(Cl)cc1)N1[C@@H](Cc2ccccc2)COC12CCN(c1ncc(C(F)(F)F)cc1Cl)CC2 | -12 | 1.74 |
| Cc1ccc(C)n1CC(=O)NCc1nc(-c2c(F)cccc2Cl)no1 | -9 | 1.18 |
| Cc1cc(CCC(=O)N2C3CCC2CC(n2ccnn2)C3)ccc1F (stereo unspecified) | -5 | 0.73 |
| CC(=O)Nc1nc(C(=O)N(C)Cc2cc(C)on2)cs1 | -3 | 0.59 |
| O=C(NC[C@H]1CCCO1)c1ccc(CN2CCN(c3ccccc3)CC2)o1 | -4 | 0.61 |
| CNC(=O)C(C)(C)CNc1ccc(C#N)cn1 | 1 | -0.11 |
| Cc1ccc(CCNC(=O)c2cnc3c(-c4cccc(C)c4)c(C)nn3c2C(F)(F)F)cc1 | -6 | 0.65 |
| COC(C)(C)C(=O)N[C@@H](C)C1=CCCCC1 | 3 | -0.59 |
| Cc1nnsc1C(=O)NC[C@H]1Cc2ccccc2CO1 | 4 | -0.44 |
| Cn1cc(CNC(=O)c2coc(COc3ccc(F)cc3)n2)cn1 | -8 | 1.52 |
| CC[C@H](C)c1csc(NC(=O)N(C)Cc2ncnn2C)n1 | -15 | 2.35 |
| Cc1cccc(CN(C(=O)Cc2n[nH]c(=O)[nH]2)C(C)C)c1 | -4 | 0.59 |
| CN1CCC(n2nc(-c3cccnc3)nc2CCc2cccnc2)CC1 | -7 | 0.68 |
| Cn1nc(C(=O)N2CCN(c3cc(C(F)(F)F)ncn3)CC2)ccc1=O | -13 | 1.61 |
| C=CCC(O)(CC=C)CNC(=O)c1c[nH]c(=O)[nH]c1=O | 1 | -0.08 |
